Measured values taken from patent publication US20120195900A1 (AbbVie / Abbott, published 2012).

Tests used:
human IL-12 [1] = molecular target: T1, human IL-12 (human, UniProt P29459 23-219; P29460 23-328, biotinylated in the ELISA (site not stated)); test: cell-based or functional assay
T1 sequence (looked up) 1: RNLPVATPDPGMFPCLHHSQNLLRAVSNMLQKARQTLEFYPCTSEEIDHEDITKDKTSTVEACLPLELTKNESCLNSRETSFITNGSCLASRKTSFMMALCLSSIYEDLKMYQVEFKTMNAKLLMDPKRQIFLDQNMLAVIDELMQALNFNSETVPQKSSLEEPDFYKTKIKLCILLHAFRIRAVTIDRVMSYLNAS
T1 sequence (looked up) 2: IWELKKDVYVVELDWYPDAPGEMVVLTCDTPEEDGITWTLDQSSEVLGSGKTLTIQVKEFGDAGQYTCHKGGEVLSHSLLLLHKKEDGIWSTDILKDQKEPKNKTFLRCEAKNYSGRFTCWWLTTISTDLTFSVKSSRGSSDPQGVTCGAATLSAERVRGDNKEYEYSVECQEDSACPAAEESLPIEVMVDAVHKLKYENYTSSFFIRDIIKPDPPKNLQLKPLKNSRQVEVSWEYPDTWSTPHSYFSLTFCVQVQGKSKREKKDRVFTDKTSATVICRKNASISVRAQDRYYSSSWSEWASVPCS

recombinant human IL-18 = recombinant human IL-18 (human, UniProt Q14116 37-193); test: cell-based or functional assay
human IL-12 [2] = molecular target: T1, human IL-12; test: ELISA, biotinylated IL-12 on streptavidin plates, anti-human IgG detection (column head: ED50)

B1: TVD-Ig 001 (other)
heavy: EVTLRESGPALVKPTQTLTLTCTFSGFSLSKSVMGVSWIRQPPGKALEWLAHIYWDDDKYYNPSLKSRLTISKDTSKNQVVLTMTNMDPVDTATYYCARRGIRSAMDYWGQGTTVTVSSASTKGPEVQLVQSGTEVKKPGESLKISCKGSGYTVTSYWIGWVRQMPGKGLEWMGFIYPGDSETRYSPTFQGQVTISADKSFNTAFLQWSSLKASDTAMYYCARVGSGWYPYTFDIWGQGTMVTVSSASTKGPEVQLVQSGAEVKKPGASVKVSCKASGYTFTKYWLGWVRQAPGQGLEWMGDIYPGYDYTHYNEKFKDRVTLTTDTSTSTAYMELRSLRSDDTAVYYCARSDGSSTYWGQGTLVTVSSASTKGPSVFPLAPSSKSTSGGTAALGCLVKDYFPEPVTVSWNSGALTSGVHTFPAVLQSSGLYSLSSVVTVPSSSLGTQTYICNVNHKPSNTKVDKKV[in this place human IgG1 Fc with changes]
light: DIVMTQSPDSLAVSLGERATINCKASQSVSNDVAWYQQKPGQPPKLLIYYASNRYTGVPDRFSGSGSGTDFTLTISSLQAEDVAVYYCQQDYNSPWTFGGGTKVEIKRTVAAPEIVMTQSPATLSVSPGERATLSCRASESISSNLAWYQQKPGQAPRLFIYTASTRATDIPARFSGSGSGTEFTLTISSLQSEDFAVYYCQQYNNWPSITFGQGTRLEIKRTVAAPDVLMTQTPLSLPVTPGEPASISCTSSQNIVHSNGNTYLEWYLQKPGQSPQLLIYKVSNRFSGVPDRFSGSGSGTDFTLKISRVEAEDVGVYYCFQVSHVPYTFGGGTKVEIKRTVAAPSVFIFPPSDEQLKSGTASVVCLLNNFYPREAKVQWKVDNALQSGNSQESVTEQDSKDSTYSLSSTLTLSKADYEKHKVYACEVTHQGLSSPVTKSFNRGEC
notes: Tri-variable domain immunoglobulin (IgG-like, two heavy and two light chains) for IL-12, IL-18 and PGE2; made in HEK 293-6E cells; The labels TVD-1218PGE2 / TVD-PGE21218 of the methods paragraphs are not tied to TVD-Ig 001 / 002 in words; also called TVD001
- neutralization potency (IC50, nM), human IL-12 bioassay: IFN-γ release from PHA blast cells (human IL-12 [1]): 0.559 nM
- neutralization potency (IC50, nM), KG-1 bioassay: IFN-γ production (recombinant human IL-18): 0.29 nM
- EC50 (human IL-12 [2]): 0.66 nM
